# Assay results from the supplement of paper PMC8728848.
# Some of the results follow.
# B1: Threefoil (Haloarcula marismortui) (protein)
# chain: GSSHHHHHHHHHHSSGLVPRGSHMGDGYYKLVARHSGKALDVENASTSDGANVIQYSYSGGDNQQWRLVDLGDGYYKLVARHSGKALDVENASTSDGANVIQYSYSGGDNQQWRLVDLGDGYYKLVARHSGKALDVENASTSDGANVIQYSYSGGDNQQWRLVDL
# Assays:
# Test in all cases: glycan array binding signal (z-score within array); higher = stronger binding
# Conditions in all cases: glycan notation: IUPAC condensed, linker removed
# [1] = target: Neu5Ac(a2-3)Gal(b1-4)GlcNAc(b1-3)GalNAc
# Method in brief: (§1)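 Arrays were curated from the Consortium for Functional Glycomics database, 3228 in total, and kept only where the protein sequence was available. Binding is expressed as a within-array Z-score. This score was averaged across arrays of the same protein sequence at different concentrations or buffers and across linkers, and negative values can be read as non-binding.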
# [2] = target: Neu5Ac(a2-3)Gal(b1-4)GlcNAc(b1-3)[Neu5Ac(a2-3)Gal(b1-4)GlcNAc(b1-6)]GalNAc
# Method in brief: as §1
# [3] = target: Neu5Ac(a2-3)Gal(b1-4)GlcNAc(b1-6)GalNAc
# Method in brief: as §1
# [4] = target: Neu5Ac(a2-3)Gal(b1-4)GlcNAc(b1-6)[Gal(b1-3)]GalNAc
# Method in brief: as §1
# [5] = target: Neu5Ac(a2-3)Gal(b1-4)GlcNAc(b1-6)[Neu5Ac(a2-3)Gal(b1-3)]GalNAc
# Method in brief: as §1
# [6] = target: Neu5Ac(a2-3)Gal(b1-4)GlcNAc6S
# Method in brief: as §1
# [7] = target: Neu5Ac(a2-3)Gal(b1-4)[Fuc(a1-3)]GlcNAc
# Method in brief: as §1
# [8] = target: Neu5Ac(a2-3)Gal(b1-4)[Fuc(a1-3)]GlcNAc(b1-2)Man
# Method in brief: as §1
# [9] = target: Neu5Ac(a2-3)Gal(b1-4)[Fuc(a1-3)]GlcNAc(b1-3)Gal
# Method in brief: as §1
# [10] = target: Neu5Ac(a2-3)Gal(b1-4)[Fuc(a1-3)]GlcNAc(b1-3)Gal(b1-4)GlcNAc
# Method in brief: as §1
# [11] = target: Neu5Ac(a2-3)Gal(b1-4)[Fuc(a1-3)]GlcNAc(b1-3)Gal(b1-4)[Fuc(a1-3)]GlcNAc(b1-3)Gal(b1-4)[Fuc(a1-3)]GlcNAc
# Method in brief: as §1
# [12] = target: Neu5Ac(a2-3)Gal(b1-4)[Fuc(a1-3)]GlcNAc(b1-3)GalNAc
# Method in brief: as §1
# [13] = target: Neu5Ac(a2-3)Gal(b1-4)[Fuc(a1-3)]GlcNAc(b1-6)[Gal(b1-3)]GalNAc
# Method in brief: as §1
# [14] = target: Neu5Ac(a2-3)Gal(b1-4)[Fuc(a1-3)]GlcNAc(b1-6)[Neu5Ac(a2-3)Gal(b1-3)]GalNAc
# Method in brief: as §1
# [15] = target: Neu5Ac(a2-3)Gal(b1-4)[Fuc(a1-3)]GlcNAc6S
# Method in brief: as §1
# [16] = target: Neu5Ac(a2-3)Gal6S(b1-4)GlcNAc
# Method in brief: as §1
# [17] = target: Neu5Ac(a2-3)Gal6S(b1-4)[Fuc(a1-3)]GlcNAc
# Method in brief: as §1
# Neu5Ac(a2-3)GalNAc = target: Neu5Ac(a2-3)GalNAc
# Method in brief: as §1
# [18] = target: Neu5Ac(a2-3)GalNAc(b1-4)GlcNAc
# Method in brief: as §1
# [19] = target: Neu5Ac(a2-3)[GalNAc(b1-4)]Gal(b1-4)Glc
# Method in brief: as §1
# [20] = target: Neu5Ac(a2-3)[GalNAc(b1-4)]Gal(b1-4)GlcNAc
# Method in brief: as §1
# [21] = target: Neu5Ac(a2-3)[GalNAc(b1-4)]Gal(b1-4)GlcNAc(b1-3)GalNAc
# Method in brief: as §1
# [22] = target: Neu5Ac(a2-3)[Neu5Ac(a2-6)]GalNAc
# Method in brief: as §1
# Neu5Ac(a2-6)Gal = target: Neu5Ac(a2-6)Gal
# Method in brief: as §1
# [23] = target: Neu5Ac(a2-6)Gal(b1-3)GlcNAc(b1-3)[Gal(b1-4)GlcNAc(b1-6)]Gal(b1-4)Glc
# Method in brief: as §1
# Neu5Ac(a2-6)Gal(b1-4)Glc = target: Neu5Ac(a2-6)Gal(b1-4)Glc
# Method in brief: as §1
# [24] = target: Neu5Ac(a2-6)Gal(b1-4)GlcNAc
# Method in brief: as §1
# [25] = target: Neu5Ac(a2-6)Gal(b1-4)GlcNAc(b1-2)Man
# Method in brief: as §1
# [26] = target: Neu5Ac(a2-6)Gal(b1-4)GlcNAc(b1-2)Man(a1-3)Man(b1-4)GlcNAc(b1-4)GlcNAc
# Method in brief: as §1
# [27] = target: Neu5Ac(a2-6)Gal(b1-4)GlcNAc(b1-2)Man(a1-3)[Gal(b1-4)GlcNAc(b1-2)Man(a1-6)]Man(b1-4)GlcNAc(b1-4)GlcNAc
# Method in brief: as §1
# [28] = target: Neu5Ac(a2-6)Gal(b1-4)GlcNAc(b1-2)Man(a1-3)[GlcNAc(b1-2)Man(a1-6)]Man(b1-4)GlcNAc(b1-4)GlcNAc
# Method in brief: as §1
# [29] = target: Neu5Ac(a2-6)Gal(b1-4)GlcNAc(b1-2)Man(a1-3)[GlcNAc(b1-4)][Neu5Ac(a2-6)Gal(b1-4)GlcNAc(b1-2)Man(a1-6)]Man(b1-4)GlcNAc(b1-4)GlcNAc
# Method in brief: as §1
# [30] = target: Neu5Ac(a2-6)Gal(b1-4)GlcNAc(b1-2)Man(a1-3)[Man(a1-6)]Man(b1-4)GlcNAc(b1-4)GlcNAc
# Method in brief: as §1
# [31] = target: Neu5Ac(a2-6)Gal(b1-4)GlcNAc(b1-2)Man(a1-3)[Neu5Ac(a2-3)Gal(b1-4)GlcNAc(b1-2)Man(a1-6)]Man(b1-4)GlcNAc(b1-4)GlcNAc
# Method in brief: as §1
# [32] = target: Neu5Ac(a2-6)Gal(b1-4)GlcNAc(b1-2)Man(a1-3)[Neu5Ac(a2-6)Gal(b1-4)GlcNAc(b1-2)Man(a1-6)]Man(b1-4)GlcNAc(b1-4)GlcNAc
# Method in brief: as §1
# [33] = target: Neu5Ac(a2-6)Gal(b1-4)GlcNAc(b1-2)Man(a1-3)[Neu5Ac(a2-6)Gal(b1-4)GlcNAc(b1-2)Man(a1-6)]Man(b1-4)GlcNAc(b1-4)[Fuc(a1-6)]GlcNAc
# Method in brief: as §1
# [34] = target: Neu5Ac(a2-6)Gal(b1-4)GlcNAc(b1-2)Man(a1-6)Man(b1-4)GlcNAc(b1-4)GlcNAc
# Method in brief: as §1
# [35] = target: Neu5Ac(a2-6)Gal(b1-4)GlcNAc(b1-2)Man(a1-6)[Gal(b1-4)GlcNAc(b1-2)Man(a1-3)]Man(b1-4)GlcNAc(b1-4)GlcNAc
# Method in brief: as §1
# [36] = target: Neu5Ac(a2-6)Gal(b1-4)GlcNAc(b1-2)Man(a1-6)[GlcNAc(b1-2)Man(a1-3)]Man(b1-4)GlcNAc(b1-4)GlcNAc
# Method in brief: as §1
# [37] = target: Neu5Ac(a2-6)Gal(b1-4)GlcNAc(b1-2)Man(a1-6)[Man(a1-3)]Man(b1-4)GlcNAc(b1-4)GlcNAc
# Method in brief: as §1
# [38] = target: Neu5Ac(a2-6)Gal(b1-4)GlcNAc(b1-2)[Neu5Ac(a2-6)Gal(b1-4)GlcNAc(b1-4)]Man(a1-3)[GlcNAc(b1-4)][Neu5Ac(a2-6)Gal(b1-4)GlcNAc(b1-2)[Neu5Ac(a2-6)Gal(b1-4)GlcNAc(b1-6)]Man(a1-6)]Man(b1-4)GlcNAc(b1-4)GlcNAc
# Method in brief: as §1
# [39] = target: Neu5Ac(a2-6)Gal(b1-4)GlcNAc(b1-2)[Neu5Ac(a2-6)Gal(b1-4)GlcNAc(b1-4)]Man(a1-3)[GlcNAc(b1-4)][Neu5Ac(a2-6)Gal(b1-4)GlcNAc(b1-4)Man(a1-6)]Man(b1-4)GlcNAc(b1-4)GlcNAc
# Method in brief: as §1
# [40] = target: Neu5Ac(a2-6)Gal(b1-4)GlcNAc(b1-2)[Neu5Ac(a2-6)Gal(b1-4)GlcNAc(b1-6)]Man(a1-6)[Neu5Ac(a2-6)Gal(b1-4)GlcNAc(b1-2)Man(a1-3)][GlcNAc(b1-4)]Man(b1-4)GlcNAc(b1-4)GlcNAc
# Method in brief: as §1
# [41] = target: Neu5Ac(a2-6)Gal(b1-4)GlcNAc(b1-3)Gal(b1-3)GlcNAc
# Method in brief: as §1
# [42] = target: Neu5Ac(a2-6)Gal(b1-4)GlcNAc(b1-3)Gal(b1-4)GlcNAc
# Method in brief: as §1
binder,measurement,setting,value
B1,glycan array binding signal (z-score),[1],-0.109
same,glycan array binding signal (z-score),[2],-0.133
same,glycan array binding signal (z-score),[3],-0.112
same,glycan array binding signal (z-score),[4],-0.213
same,glycan array binding signal (z-score),[5],-0.238
same,glycan array binding signal (z-score),[6],-0.364
same,glycan array binding signal (z-score),[7],-0.227
same,glycan array binding signal (z-score),[8],-0.122
same,glycan array binding signal (z-score),[9],-0.238
same,glycan array binding signal (z-score),[10],-0.117
same,glycan array binding signal (z-score),[11],-0.238
same,glycan array binding signal (z-score),[12],-0.152
same,glycan array binding signal (z-score),[13],-0.28
same,glycan array binding signal (z-score),[14],0.108
same,glycan array binding signal (z-score),[15],-0.366
same,glycan array binding signal (z-score),[16],-0.239
same,glycan array binding signal (z-score),[17],-0.363
same,glycan array binding signal (z-score),Neu5Ac(a2-3)GalNAc,-0.112
same,glycan array binding signal (z-score),[18],-0.219
same,glycan array binding signal (z-score),[19],-0.269
same,glycan array binding signal (z-score),[20],-0.341
same,glycan array binding signal (z-score),[21],-0.228
same,glycan array binding signal (z-score),[22],-0.222
same,glycan array binding signal (z-score),Neu5Ac(a2-6)Gal,-0.217
same,glycan array binding signal (z-score),[23],-0.029
same,glycan array binding signal (z-score),Neu5Ac(a2-6)Gal(b1-4)Glc,-0.224
same,glycan array binding signal (z-score),[24],-0.118
same,glycan array binding signal (z-score),[25],-0.236
same,glycan array binding signal (z-score),[26],-0.167
same,glycan array binding signal (z-score),[27],-0.255
same,glycan array binding signal (z-score),[28],-0.414
same,glycan array binding signal (z-score),[29],-0.272
same,glycan array binding signal (z-score),[30],-0.219
same,glycan array binding signal (z-score),[31],-0.214
same,glycan array binding signal (z-score),[32],-0.137
same,glycan array binding signal (z-score),[33],-0.249
same,glycan array binding signal (z-score),[34],-0.253
same,glycan array binding signal (z-score),[35],-0.306
same,glycan array binding signal (z-score),[36],-0.264
same,glycan array binding signal (z-score),[37],-0.314
same,glycan array binding signal (z-score),[38],-0.086
same,glycan array binding signal (z-score),[39],-0.256
same,glycan array binding signal (z-score),[40],-0.28
same,glycan array binding signal (z-score),[41],-0.223
same,glycan array binding signal (z-score),[42],-0.288
